Source: article PMC9619224
No constants are given. Whether binding was seen depends on the method and setting. In cells and extracts the contact can be indirect. Some results given as binding are weak or reduced against the parent protein; the word gives no strength. One block for each binder: values may come before it.

By UniProt entry, the sequences of proteins in these tests, tags left out. Residues count along the entry.
UniProt Q6X632: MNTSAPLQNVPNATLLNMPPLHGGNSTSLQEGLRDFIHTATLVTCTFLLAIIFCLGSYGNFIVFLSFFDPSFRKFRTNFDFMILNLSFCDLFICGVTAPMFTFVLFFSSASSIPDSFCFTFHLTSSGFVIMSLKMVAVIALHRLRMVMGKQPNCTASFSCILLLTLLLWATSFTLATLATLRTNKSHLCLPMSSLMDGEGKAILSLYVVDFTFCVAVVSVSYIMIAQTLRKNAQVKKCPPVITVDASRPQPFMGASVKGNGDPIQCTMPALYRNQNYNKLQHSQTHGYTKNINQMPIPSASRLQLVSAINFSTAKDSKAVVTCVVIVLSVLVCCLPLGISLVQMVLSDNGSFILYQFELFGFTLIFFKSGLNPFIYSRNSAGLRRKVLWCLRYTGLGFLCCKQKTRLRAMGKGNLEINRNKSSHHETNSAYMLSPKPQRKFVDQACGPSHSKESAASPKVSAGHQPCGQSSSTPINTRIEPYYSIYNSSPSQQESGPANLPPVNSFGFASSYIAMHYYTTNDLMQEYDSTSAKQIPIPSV
UniProt P30731, residues 18-423: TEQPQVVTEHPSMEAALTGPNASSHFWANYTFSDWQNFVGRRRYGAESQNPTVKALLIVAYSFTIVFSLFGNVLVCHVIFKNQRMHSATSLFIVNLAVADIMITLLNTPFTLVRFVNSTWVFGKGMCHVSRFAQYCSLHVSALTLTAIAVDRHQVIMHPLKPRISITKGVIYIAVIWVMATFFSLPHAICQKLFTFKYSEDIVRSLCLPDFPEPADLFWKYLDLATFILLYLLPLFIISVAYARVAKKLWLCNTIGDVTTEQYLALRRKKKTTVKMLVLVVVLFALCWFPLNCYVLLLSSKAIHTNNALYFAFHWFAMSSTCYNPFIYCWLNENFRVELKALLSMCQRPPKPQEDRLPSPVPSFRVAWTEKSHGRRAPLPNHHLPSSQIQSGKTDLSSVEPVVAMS
UniProt P97926: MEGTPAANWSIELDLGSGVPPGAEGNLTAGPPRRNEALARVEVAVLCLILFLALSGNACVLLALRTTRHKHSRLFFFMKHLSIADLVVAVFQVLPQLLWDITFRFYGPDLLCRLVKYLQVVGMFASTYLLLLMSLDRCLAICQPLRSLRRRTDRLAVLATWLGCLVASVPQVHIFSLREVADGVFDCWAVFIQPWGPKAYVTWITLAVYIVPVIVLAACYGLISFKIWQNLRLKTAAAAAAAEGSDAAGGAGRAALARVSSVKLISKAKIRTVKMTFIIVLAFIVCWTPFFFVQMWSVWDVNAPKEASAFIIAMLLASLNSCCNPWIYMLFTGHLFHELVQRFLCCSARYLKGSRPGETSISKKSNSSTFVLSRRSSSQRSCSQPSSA
UniProt Q62053: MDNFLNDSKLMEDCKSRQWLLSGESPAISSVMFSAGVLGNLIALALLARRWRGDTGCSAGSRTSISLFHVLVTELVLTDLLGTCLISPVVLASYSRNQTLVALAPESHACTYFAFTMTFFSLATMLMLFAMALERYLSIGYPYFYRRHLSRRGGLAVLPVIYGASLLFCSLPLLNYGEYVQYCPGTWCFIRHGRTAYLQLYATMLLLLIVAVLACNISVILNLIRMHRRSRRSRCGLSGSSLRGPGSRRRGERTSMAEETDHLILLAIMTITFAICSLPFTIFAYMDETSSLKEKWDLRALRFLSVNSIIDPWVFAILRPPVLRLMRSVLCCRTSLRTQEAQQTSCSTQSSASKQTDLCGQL
UniProt P25962: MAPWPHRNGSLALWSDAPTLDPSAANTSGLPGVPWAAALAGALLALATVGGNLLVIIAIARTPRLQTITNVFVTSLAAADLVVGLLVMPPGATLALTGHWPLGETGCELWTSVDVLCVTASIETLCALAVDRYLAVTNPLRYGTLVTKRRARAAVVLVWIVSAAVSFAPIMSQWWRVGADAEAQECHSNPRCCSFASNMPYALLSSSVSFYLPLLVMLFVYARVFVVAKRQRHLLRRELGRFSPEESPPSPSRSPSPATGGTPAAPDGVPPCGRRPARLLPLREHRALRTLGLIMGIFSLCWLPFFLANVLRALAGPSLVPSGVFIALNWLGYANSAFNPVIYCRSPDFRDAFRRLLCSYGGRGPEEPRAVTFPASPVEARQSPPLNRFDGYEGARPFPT
UniProt Q04573: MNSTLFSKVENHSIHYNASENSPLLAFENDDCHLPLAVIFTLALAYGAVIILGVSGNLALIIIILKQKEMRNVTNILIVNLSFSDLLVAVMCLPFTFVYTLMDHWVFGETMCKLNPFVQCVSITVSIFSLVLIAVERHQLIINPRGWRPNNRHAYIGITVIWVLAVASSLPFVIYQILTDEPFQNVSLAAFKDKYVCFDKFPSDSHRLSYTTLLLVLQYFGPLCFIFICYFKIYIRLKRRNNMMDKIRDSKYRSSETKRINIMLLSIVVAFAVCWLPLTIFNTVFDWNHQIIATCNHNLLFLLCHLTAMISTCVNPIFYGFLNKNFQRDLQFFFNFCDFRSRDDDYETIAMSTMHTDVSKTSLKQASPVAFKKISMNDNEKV

How the values were obtained:
Experiment in all cases: co-IP; HEK293T cells transfected with 3xHA-GPCR and 2xFlag-MRAP1 or MRAP2; GPCR immunoprecipitated with rabbit anti-HA, Protein A/G agarose, overnight at 4°C; MRAP detected by mouse anti-Flag blot
[1] = molecular target: G protein‐coupled receptor 75 (mouse) (UniProt Q6X632)
[2] = molecular target: G protein‐coupled receptor 83 (mouse) (UniProt P30731)
[3] = molecular target: T1, Pyroglutamylated RFamide peptide receptor (mouse) (UniProt P83861)
T1 sequence: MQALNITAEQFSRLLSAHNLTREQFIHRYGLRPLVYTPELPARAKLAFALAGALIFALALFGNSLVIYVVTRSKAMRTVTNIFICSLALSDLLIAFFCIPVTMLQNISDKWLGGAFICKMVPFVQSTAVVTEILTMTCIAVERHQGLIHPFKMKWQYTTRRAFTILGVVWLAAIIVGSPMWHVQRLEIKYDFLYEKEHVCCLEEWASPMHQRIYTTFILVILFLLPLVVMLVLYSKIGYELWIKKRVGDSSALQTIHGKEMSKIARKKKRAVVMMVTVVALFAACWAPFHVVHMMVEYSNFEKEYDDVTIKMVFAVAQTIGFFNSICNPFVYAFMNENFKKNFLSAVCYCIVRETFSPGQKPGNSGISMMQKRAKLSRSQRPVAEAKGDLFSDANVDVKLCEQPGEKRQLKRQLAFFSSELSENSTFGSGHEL

[4] = molecular target: Oxytocin receptor (mouse) (UniProt P97926)
[5] = molecular target: Prostaglandin E receptor 2 (subtype EP2) (mouse) (UniProt Q62053)
[6] = molecular target: Adrenergic receptor, beta 3 (mouse) (UniProt P25962)
[7] = molecular target: T2, G protein‐coupled receptor 150 (mouse) (UniProt Q8BL07)
T2 sequence: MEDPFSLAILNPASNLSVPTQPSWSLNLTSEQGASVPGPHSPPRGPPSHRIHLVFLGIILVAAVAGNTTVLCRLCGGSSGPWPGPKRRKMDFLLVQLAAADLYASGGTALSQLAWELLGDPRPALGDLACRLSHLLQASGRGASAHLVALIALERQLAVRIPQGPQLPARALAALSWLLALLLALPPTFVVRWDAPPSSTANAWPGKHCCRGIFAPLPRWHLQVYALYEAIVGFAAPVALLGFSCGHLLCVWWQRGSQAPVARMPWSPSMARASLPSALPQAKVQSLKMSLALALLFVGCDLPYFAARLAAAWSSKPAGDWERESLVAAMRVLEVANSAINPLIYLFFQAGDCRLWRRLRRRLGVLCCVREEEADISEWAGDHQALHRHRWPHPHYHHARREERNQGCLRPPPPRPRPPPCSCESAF

[8] = molecular target: T3, G protein‐coupled receptor 151 (mouse) (UniProt Q7TSN6)
T3 sequence: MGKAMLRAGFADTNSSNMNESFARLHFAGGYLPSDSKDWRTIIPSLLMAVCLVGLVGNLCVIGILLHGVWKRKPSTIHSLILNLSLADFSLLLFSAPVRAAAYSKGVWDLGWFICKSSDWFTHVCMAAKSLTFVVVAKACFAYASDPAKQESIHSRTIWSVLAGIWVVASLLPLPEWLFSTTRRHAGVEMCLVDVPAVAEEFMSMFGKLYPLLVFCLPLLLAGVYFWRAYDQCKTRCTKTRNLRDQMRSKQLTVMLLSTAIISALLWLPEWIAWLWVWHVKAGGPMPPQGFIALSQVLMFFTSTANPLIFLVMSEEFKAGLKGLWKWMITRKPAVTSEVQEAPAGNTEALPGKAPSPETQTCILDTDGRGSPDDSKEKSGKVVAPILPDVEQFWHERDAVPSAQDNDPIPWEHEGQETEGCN

[9] = molecular target: T4, Neuropeptides B/W receptor 1 (mouse) (UniProt P49681)
T4 sequence: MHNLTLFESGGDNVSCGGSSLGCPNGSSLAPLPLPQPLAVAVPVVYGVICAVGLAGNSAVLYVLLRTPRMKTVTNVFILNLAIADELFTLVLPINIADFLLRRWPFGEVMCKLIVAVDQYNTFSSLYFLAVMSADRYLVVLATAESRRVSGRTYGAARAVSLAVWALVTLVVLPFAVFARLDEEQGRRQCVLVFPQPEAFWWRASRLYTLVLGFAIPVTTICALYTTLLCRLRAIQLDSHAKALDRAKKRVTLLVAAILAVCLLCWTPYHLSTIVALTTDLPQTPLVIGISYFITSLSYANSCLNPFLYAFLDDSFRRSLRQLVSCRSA

[10] = molecular target: Neuropeptide Y receptor Y1 (mouse) (UniProt Q04573)

- binding [1]: binds
- binding [2]: binds
- binding [3]: no binding
- binding [4]: binds
- binding [5]: binds
- binding [6]: binds
- binding [7]: no binding
- binding [8]: binds
- binding [9]: binds
- binding [10]: binds
B1: melanocortin receptor accessory protein MRAP1 (protein, UniProt Q9D159 1-127)
chain: MANGTDASVPLTSYEYYLDYIDLIPVDEKKLKANKHSIVIALWLSLATFVVLLFLILLYMSWSGSPQMRHSPQPQPICSWTHSFNLPLCLRRASLQTTEEPGRRAGTDQWLTQQSPSASAPGPLALP

- binding [1]: binds
- binding [2]: binds
- binding [3]: binds
- binding [4]: no binding
- binding [5]: binds
- binding [6]: binds
- binding [7]: binds
- binding [8]: binds
- binding [9]: binds
- binding [10]: binds
B2: melanocortin receptor accessory protein MRAP2 (protein, UniProt D3Z1Q2 1-207)
chain: MEMSAQRLASNRTSPQSPSNSDYTWEYEYYEIGPVSFEGLKAHKYSIVIGFWVGLAVFVIFMFFVLTLLTKTGAPHQDNAESSERRFRMNSFVSDFGKPLESDKVFSRQGNEESRSLFHCYINEVEHLDRVKVCHQTTAIDSDVHLQEASRSSGRPEEELARFMKFDIPNFVNTEQSSFGEDDLLISEAPVLLENKPVSQTSRIDLD
